In US7923465B2, “Cannabinoid receptor ligands, pharmaceutical compositions containing them, and process for their preparation” (priority 2005, dated 2011):
At least one read-out could not be matched to a standard name with certainty.

Target: hCB1 (Homo sapiens, UniProt P21554)
Test: In vitro binding assay using hCB1-CHO membranes, [3H]-CP-55,940 displacement (Protocol II)
Design: expressed in transfected cells; host or cells: CHO (hCB1-CHO, generated in-house)
Conditions: [3H]-CP-55,940 displacement
Procedure: II. Protocol for In Vitro Assay Using hCB1-CHO Membranes
The reaction was set up in a total volume of 200 μl in PEI (Poly(ethyleneimine)) (0.2%) precoated Millipore GFB (Glass Fibre-B) filter plates. 1 mM stocks of test compounds were prepared in DMSO and tested at a final concentration of 300 nM. The non-specific binding was determined by 0.5 μM CP-55, 940. […] The assay mixture (with or without the test compound) was incubated at 37° C. for 1 hour. The reaction was stopped by rapid filtration under vacuum and the radioactivity on the filters was measured by liquid scintillation counting.

Sequence of UniProt P21554 (P21554 whole entry): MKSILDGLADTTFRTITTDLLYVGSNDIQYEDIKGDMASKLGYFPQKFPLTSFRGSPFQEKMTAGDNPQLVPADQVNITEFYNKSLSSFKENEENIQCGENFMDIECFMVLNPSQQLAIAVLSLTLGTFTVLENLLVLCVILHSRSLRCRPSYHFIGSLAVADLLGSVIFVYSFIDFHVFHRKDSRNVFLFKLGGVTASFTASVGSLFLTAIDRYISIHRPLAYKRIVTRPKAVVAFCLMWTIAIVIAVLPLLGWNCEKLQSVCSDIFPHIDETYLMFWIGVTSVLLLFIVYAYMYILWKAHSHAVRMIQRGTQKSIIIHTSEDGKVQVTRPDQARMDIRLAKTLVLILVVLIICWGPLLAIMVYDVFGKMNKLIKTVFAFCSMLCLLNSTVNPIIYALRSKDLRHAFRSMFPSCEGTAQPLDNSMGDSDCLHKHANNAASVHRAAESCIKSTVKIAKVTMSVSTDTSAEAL

SMILES | % Displacement Protocol II [%]
O=C(Nn1cnnc1)c1nn(-c2ccc(Cl)cc2Cl)c2c1C1CCC2C1 (stereo not shown) [Example 240, N(3)-(4H-1,2,4-triazol-4-yl)-1-(2,4-dichlorophenyl)-4,5,6,7-tetrahydro-1H-4,7-methano-indazole-3-carboxamide] | 0
O=C(Nc1ccccc1)c1nn(-c2ccc(Cl)cc2Cl)c2c1C1CCC2C1 (stereo not shown) [Example 243, N(3)-Phenyl-1-(2,4-dichlorophenyl)-4,5,6,7-tetrahydro-1H-4,7-methano-indazole-3-carboxamide] | 1.74
O=C(NCc1ccccc1F)c1nn(-c2ccc(Cl)cc2Cl)c2c1C1CCC2C1 (stereo not shown) [Example 245, N(3)-(2-Fluorobenzyl)-1-(2,4-dichlorophenyl)-4,5,6,7-tetrahydro-1H-4,7-methano-indazole-3-carboxamide] | 30.82
O=C(NCc1ccc(F)cc1F)c1nn(-c2ccc(Cl)cc2Cl)c2c1C1CCC2C1 (stereo not shown) [Example 247, N(3)-(2,4-Difluorobenzyl)-1-(2,4-dichlorophenyl)-4,5,6,7-tetrahydro-1H-4,7-methano-indazole-3-carboxamide] | 22.75
O=C(NCc1c(F)cccc1F)c1nn(-c2ccc(Cl)cc2Cl)c2c1C1CCC2C1 (stereo not shown) [Example 248, N(3)-(2,6-Difluorobenzyl)-1-(2,4-dichlorophenyl)-4,5,6,7-tetrahydro-1H-4,7-methano-indazole-3-carboxamide] | 40.11
O=C(NCc1ccc(Cl)cc1)c1nn(-c2ccc(Cl)cc2Cl)c2c1C1CCC2C1 (stereo not shown) [Example 250, N(3)-(4-Chlorobenzyl)-1-(2,4-dichlorophenyl)-4,5,6,7-tetrahydro-1H-4,7-methano-indazole-3-carboxamide] | 6.46
O=C(NCc1ccc(Cl)cc1Cl)c1nn(-c2ccc(Cl)cc2Cl)c2c1C1CCC2C1 (stereo not shown) [Example 251, N(3)-(2,4-Dichlorobenzyl)-1-(2,4-dichlorophenyl)-4,5,6,7-tetrahydro-1H-4,7-methano-indazole-3-carboxamide] | 20.93
C[C@@H](NC(=O)c1nn(-c2ccc(Cl)cc2Cl)c2c1C1CCC2C1)c1ccccc1 (stereo partly drawn) [Example 253, N(3)-[R-(1-phenylethyl)]-1-(2,4-dichlorophenyl)-4,5,6,7-tetrahydro-1H-4,7-methano-indazole-3-carboxamide] | 43.16
O=C(NNc1ccccc1)c1nn(-c2ccc(Cl)cc2Cl)c2c1C1CCC2C1 (stereo not shown) [Example 256, N(3)-Phenylamino-1-(2,4-dichlorophenyl)-4,5,6,7-tetrahydro-1H-4,7-methano-indazole-3-carboxamide] | 7.71
O=C(NNc1ccccc1Cl)c1nn(-c2ccc(Cl)cc2Cl)c2c1C1CCC2C1 (stereo not shown) [Example 257, N(3)-[(2-Chlorophenyl)amino]-1-(2,4-dichlorophenyl)-4,5,6,7-tetrahydro-1H-4,7-methano-indazole-3-carboxamide] | 30.69
CN(NC(=O)c1nn(-c2ccc(Cl)cc2Cl)c2c1C1CCC2C1)c1ccccc1Cl (stereo not shown) [Example 258, N(3)-[N-(2-Chlorophenyl)-N-methylamino]-1-(2,4-dichlorophenyl)-4,5,6,7-tetrahydro-1H-4,7-methano-indazole-3-carboxamide] | 61.78
O=C(NNc1ccc(Cl)cc1)c1nn(-c2ccc(Cl)cc2Cl)c2c1C1CCC2C1 (stereo not shown) [Example 259, N(3)-[(4-Chlorophenyl)amino]-1-(2,4-dichlorophenyl)-4,5,6,7-tetrahydro-1H-4,7-methano-indazole-3-carboxamide] | 2.72
O=C(NNc1ccc(Cl)cc1Cl)c1nn(-c2ccc(Cl)cc2Cl)c2c1C1CCC2C1 (stereo not shown) [Example 260, N(3)-[(2,4-Dichlorophenyl)amino]-1-(2,4-dichlorophenyl)-4,5,6,7-tetrahydro-1H-4,7-methano-indazole-3-carboxamide] | 30.22
CN(NC(=O)c1nn(-c2ccc(Cl)cc2Cl)c2c1C1CCC2C1)c1ccc(Cl)cc1Cl (stereo not shown) [Example 261, N(3)-[(2,4dichlorophenyl)-N-methylamino]-1-(2,4-dichlorophenyl)-4,5,6,7-tetrahydro-1H-4,7-methano-indazole-3-carboxamide] | 34.15
O=C(NNc1ccc(Cl)c(Cl)c1)c1nn(-c2ccc(Cl)cc2Cl)c2c1C1CCC2C1 (stereo not shown) [Example 262, N(3)-[(3,4-Dichlorophenyl)amino]-1-(2,4-dichlorophenyl)-4,5,6,7-tetrahydro-1H-4,7-methano-indazole-3-carboxamide] | 21.54
O=C(NNc1ccccc1Br)c1nn(-c2ccc(Cl)cc2Cl)c2c1C1CCC2C1 (stereo not shown) [Example 263, N(3)-[(2-Bromophenyl)amino]-1-(2,4-dichlorophenyl)-4,5,6,7-tetrahydro-1H-4,7-methano-indazole-3-carboxamide] | 26.73
O=C(NNc1ccc(F)cc1F)c1nn(-c2ccc(Cl)cc2Cl)c2c1C1CCC2C1 (stereo not shown) [Example 265, N(3)-[(2,4-Difluorophenyl)amino]-1-(2,4-dichlorophenyl)-4,5,6,7-tetrahydro-1H-4,7-methano-indazole-3-carboxamide] | 25.85
O=C(NNc1cccc(F)c1)c1nn(-c2ccc(Cl)cc2Cl)c2c1C1CCC2C1 (stereo not shown) [Example 266, N(3)-[(3-Fluorophenyl)amino]-1-(2,4-dichlorophenyl)-4,5,6,7-tetrahydro-1H-4,7-methano-indazole-3-carboxamide] | 23.00
O=C(NNc1ncccc1Cl)c1nn(-c2ccc(Cl)cc2Cl)c2c1C1CCC2C1 (stereo not shown) [Example 267, N(3)-[(3-chloropyridin-2-yl)amino]-1-(2,4-dichlorophenyl)-4,5,6,7-tetrahydro-1H-4,7-methano-indazole-3-carboxamide] | 60.43
O=C(NN1CCCCC1)c1nn(-c2ccc(Cl)cc2Cl)c2c1C1CCC2C1 (stereo not shown) [Example 268, N(5)-piperidino-3-(2′,4′-dichlorophenyl)-3,4-diazatricyclo[5.2.1.0^2,6]deca-2(6),4-diene-5-carboxamide] | 74.52
O=C(NCc1ccccc1)c1nn(-c2ccc(Cl)cc2Cl)c2c1C1CCC2C1 (stereo not shown) [Example 269, N(5)-benzyl-3-(2′,4′-dichlorophenyl)-3,4-diazatricyclo[5.2.1.0^2,6]deca-2(6),4-diene-5-carboxamide] | 57.25
O=C(NN1CCCCC1)c1nn(-c2ccccc2Br)c2c1C1CCC2C1 (stereo not shown) [Example 270, N(3)-Piperidino-1-(2-bromophenyl)-4,5,6,7-tetrahydro-1H-4,7-methano-indazole-3-carboxamide] | 18.04
O=C(NCc1ccccc1)c1nn(-c2ccccc2Br)c2c1C1CCC2C1 (stereo not shown) [Example 272, N(3)-Benzyl-1-(2-bromophenyl)-4,5,6,7-tetrahydro-1H-4,7-methano-indazole-3-carboxamide] | 13.99
O=C(NNc1ccccc1)c1nn(-c2ccccc2Br)c2c1C1CCC2C1 (stereo not shown) [Example 273, N(3)-Phenylamino-1-(2-bromophenyl)-4,5,6,7-tetrahydro-1H-4,7-methano-indazole-3-carboxamide] | 8.94

Same assay, conditions: cell marked @1 / @ 1 μm

SMILES | % Displacement Protocol II
O=C(NNc1ccccc1F)c1nn(-c2ccc(Cl)cc2Cl)c2c1C1CCC2C1 (stereo not shown) [Example 264, N(3)-[(2-Fluorophenyl)amino]-1-(2,4-dichlorophenyl)-4,5,6,7-tetrahydro-1H-4,7-methano-indazole-3-carboxamide] | 60.85@ 1 μm %
